# In the supplement of paper PMC8728848:
# The list shows a part of the results.
# B1: SSL (Salmo salar) (protein)
# chain: TGAKGAEEGVVPAETRNQCPTGWFQFGSRCFMFVETARSWPLAERHCVSLGANLASVHSSADDQFLQAIAGCKTGAFSTTWIGGFDAVQDRLWFWSDGSEFDYQNWAKGEPNNSGGREPCIVINWGDEYRWNDIKCGNSFPSVCSKRICEIQKN
# What was measured:
# Test in all cases: glycan array binding signal (z-score within array); higher = stronger binding
# Settings in all cases: glycan notation: IUPAC condensed, linker removed
# [1] = target: Gal(b1-4)GlcNAc(b1-3)Gal(b1-4)[Fuc(a1-3)]GlcNAc(b1-3)Gal(b1-4)[Fuc(a1-3)]GlcNAc
# Procedure, shortened: (§1)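 From the Consortium for Functional Glycomics database, 3228 arrays were curated, keeping only those whose protein sequence was available. Binding is given as a within-array Z-score averaged across arrays sharing a protein sequence and across linkers. Negative Z-scores can be read as non-binding.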
# [2] = target: Gal(b1-4)GlcNAc(b1-3)GalNAc
# Procedure, shortened: as §1
# [3] = target: Gal(b1-4)GlcNAc(b1-3)[Gal(b1-4)GlcNAc(b1-6)]Gal(b1-4)GlcNAc
# Procedure, shortened: as §1
# [4] = target: Gal(b1-4)GlcNAc(b1-3)[Gal(b1-4)GlcNAc(b1-6)]GalNAc
# Procedure, shortened: as §1
# [5] = target: Gal(b1-4)GlcNAc(b1-3)[GlcNAc(b1-6)]Gal(b1-4)GlcNAc
# Procedure, shortened: as §1
# [6] = target: Gal(b1-4)GlcNAc(b1-6)Gal(b1-4)GlcNAc
# Procedure, shortened: as §1
# [7] = target: Gal(b1-4)GlcNAc(b1-6)GalNAc
# Procedure, shortened: as §1
# [8] = target: Gal(b1-4)GlcNAc(b1-6)[Gal(b1-3)]GalNAc
# Procedure, shortened: as §1
# [9] = target: Gal3S(b1-3)GalNAc
# Procedure, shortened: as §1
# [10] = target: Gal3S(b1-3)GlcNAc
# Procedure, shortened: as §1
# [11] = target: Gal3S(b1-3)[Fuc(a1-4)]GlcNAc
# Procedure, shortened: as §1
# [12] = target: Gal3S(b1-4)Glc
# Procedure, shortened: as §1
# [13] = target: Gal3S(b1-4)Glc6S
# Procedure, shortened: as §1
# [14] = target: Gal3S(b1-4)GlcNAc
# Procedure, shortened: as §1
# [15] = target: Gal3S(b1-4)GlcNAc6S
# Procedure, shortened: as §1
# [16] = target: Gal3S(b1-4)[Fuc(a1-3)]Glc
# Procedure, shortened: as §1
# [17] = target: Gal3S(b1-4)[Fuc(a1-3)]Glc6S
# Procedure, shortened: as §1
# [18] = target: Gal3S4S(b1-4)GlcNAc
# Procedure, shortened: as §1
# [19] = target: Gal3S6S(b1-4)GlcNAc
# Procedure, shortened: as §1
# [20] = target: Gal3S6S(b1-4)GlcNAc6S
# Procedure, shortened: as §1
# [21] = target: Gal4S(b1-4)GlcNAc
# Procedure, shortened: as §1
# [22] = target: Gal4S6S(b1-4)GlcNAc
# Procedure, shortened: as §1
# [23] = target: Gal6S(b1-4)Glc
# Procedure, shortened: as §1
# [24] = target: Gal6S(b1-4)Glc6S
# Procedure, shortened: as §1
# [25] = target: Gal6S(b1-4)GlcNAc
# Procedure, shortened: as §1
# [26] = target: Gal6S(b1-4)GlcNAc6S
# Procedure, shortened: as §1
# [27] = target: GalNAc(a1-3)Gal
# Procedure, shortened: as §1
# [28] = target: GalNAc(a1-3)GalNAc
# Procedure, shortened: as §1
# [29] = target: GalNAc(a1-3)GalNAc(a1-3)Gal(a1-4)Gal(b1-4)GlcNAc
# Procedure, shortened: as §1
# [30] = target: GalNAc(b1-3)Gal
# Procedure, shortened: as §1
# [31] = target: GalNAc(b1-3)Gal(a1-4)Gal(b1-4)GlcNAc
# Procedure, shortened: as §1
# [32] = target: GalNAc(b1-3)Gal(a1-4)Gal(b1-4)GlcNAc(b1-3)Gal(b1-4)Glc
# Procedure, shortened: as §1
# [33] = target: GalNAc(b1-3)Gal(a1-6)Gal(b1-4)Glc
# Procedure, shortened: as §1
# [34] = target: GalNAc(b1-3)GalNAc
# Procedure, shortened: as §1
# [35] = target: GalNAc(b1-4)GlcNAc
# Procedure, shortened: as §1
# [36] = target: GalNAc(b1-4)GlcNAc(b1-2)Man(a1-3)[GalNAc(b1-4)GlcNAc(b1-2)Man(a1-6)]Man(b1-4)GlcNAc(b1-4)GlcNAc
# Procedure, shortened: as §1
# [37] = target: Glc(a1-4)Glc
# Procedure, shortened: as §1
# [38] = target: Glc(a1-6)Glc(a1-6)Glc
# Procedure, shortened: as §1
# [39] = target: Glc(b1-4)Glc
# Procedure, shortened: as §1
# [40] = target: Glc(b1-6)Glc
# Procedure, shortened: as §1
# [41] = target: GlcA(b1-3)Gal
# Procedure, shortened: as §1
# [42] = target: GlcA(b1-3)GlcNAc
# Procedure, shortened: as §1
# [43] = target: GlcA(b1-6)Gal
# Procedure, shortened: as §1
# [44] = target: GlcNAc(a1-3)Gal(b1-4)GlcNAc
# Procedure, shortened: as §1
# [45] = target: GlcNAc(a1-4)Gal(b1-3)GlcNAc
# Procedure, shortened: as §1
binder,measurement,setting,value
B1,glycan array binding signal (z-score),[1],-0.175
same,glycan array binding signal (z-score),[2],-0.172
same,glycan array binding signal (z-score),[3],-0.183
same,glycan array binding signal (z-score),[4],-0.174
same,glycan array binding signal (z-score),[5],-0.155
same,glycan array binding signal (z-score),[6],-0.179
same,glycan array binding signal (z-score),[7],-0.168
same,glycan array binding signal (z-score),[8],-0.157
same,glycan array binding signal (z-score),[9],-0.168
same,glycan array binding signal (z-score),[10],-0.173
same,glycan array binding signal (z-score),[11],-0.159
same,glycan array binding signal (z-score),[12],-0.132
same,glycan array binding signal (z-score),[13],-0.133
same,glycan array binding signal (z-score),[14],-0.143
same,glycan array binding signal (z-score),[15],-0.156
same,glycan array binding signal (z-score),[16],-0.133
same,glycan array binding signal (z-score),[17],-0.088
same,glycan array binding signal (z-score),[18],-0.15
same,glycan array binding signal (z-score),[19],-0.156
same,glycan array binding signal (z-score),[20],-0.152
same,glycan array binding signal (z-score),[21],-0.166
same,glycan array binding signal (z-score),[22],-0.148
same,glycan array binding signal (z-score),[23],-0.154
same,glycan array binding signal (z-score),[24],-0.147
same,glycan array binding signal (z-score),[25],-0.174
same,glycan array binding signal (z-score),[26],-0.162
same,glycan array binding signal (z-score),[27],-0.165
same,glycan array binding signal (z-score),[28],-0.169
same,glycan array binding signal (z-score),[29],-0.185
same,glycan array binding signal (z-score),[30],-0.143
same,glycan array binding signal (z-score),[31],-0.176
same,glycan array binding signal (z-score),[32],-0.183
same,glycan array binding signal (z-score),[33],-0.178
same,glycan array binding signal (z-score),[34],-0.159
same,glycan array binding signal (z-score),[35],-0.162
same,glycan array binding signal (z-score),[36],-0.165
same,glycan array binding signal (z-score),[37],2.63
same,glycan array binding signal (z-score),[38],-0.12
same,glycan array binding signal (z-score),[39],0.039
same,glycan array binding signal (z-score),[40],-0.048
same,glycan array binding signal (z-score),[41],1.44
same,glycan array binding signal (z-score),[42],4.35
same,glycan array binding signal (z-score),[43],0.299
same,glycan array binding signal (z-score),[44],0.457
same,glycan array binding signal (z-score),[45],1.56
